# According to publication PMC6919601, “Identification of Plasmodium dipeptidyl aminopeptidase allosteric inhibitors by high throughput screening” (PLoS ONE, 2019):
# About 230 (0.21%) of roughly 110,000 compounds showed an effect of 50% or more. Some of the results follow.
# Molecular target: DPAP1 (Plasmodium falciparum, UniProt Q8IIJ9)
# Assay: primary screen, percent inhibition; read by cleavage of a fluorogenic dipeptide substrate; higher = more effect of the substance
# Set-up: species or system P. falciparum D10 trophozoite lysates; single well
# 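Also: 30 min substrate incubation versus DMSO and 10 µM JCP410 controls.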
# Chain of DPAP1 (Q8IIJ9 whole entry, looked up): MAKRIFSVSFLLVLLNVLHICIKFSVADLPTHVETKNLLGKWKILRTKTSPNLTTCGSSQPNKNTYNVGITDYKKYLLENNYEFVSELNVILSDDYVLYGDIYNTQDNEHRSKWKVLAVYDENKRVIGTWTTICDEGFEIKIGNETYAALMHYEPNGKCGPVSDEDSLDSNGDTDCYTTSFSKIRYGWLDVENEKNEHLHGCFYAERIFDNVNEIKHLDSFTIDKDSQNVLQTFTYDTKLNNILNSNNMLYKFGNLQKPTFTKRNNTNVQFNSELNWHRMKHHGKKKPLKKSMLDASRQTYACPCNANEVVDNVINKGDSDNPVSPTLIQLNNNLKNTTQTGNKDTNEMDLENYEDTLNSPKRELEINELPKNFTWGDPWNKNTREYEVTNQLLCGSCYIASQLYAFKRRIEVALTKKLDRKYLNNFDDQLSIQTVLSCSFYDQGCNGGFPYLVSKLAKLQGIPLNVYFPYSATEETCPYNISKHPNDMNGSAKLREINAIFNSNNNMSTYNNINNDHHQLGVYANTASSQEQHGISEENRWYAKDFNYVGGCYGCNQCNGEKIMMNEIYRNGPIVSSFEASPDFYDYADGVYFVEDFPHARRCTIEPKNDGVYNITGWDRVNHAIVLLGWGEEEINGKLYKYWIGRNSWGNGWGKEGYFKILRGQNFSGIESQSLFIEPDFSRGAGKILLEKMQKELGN
row,Structure (SMILES),% Inhibition @ 10 uM [%]
1,OC(/C=C/c1cccc(C(F)(F)F)c1)(Cn1ccnc1)c1cccnc1 (stereo not drawn),3.54
2,O=C(Nc1ccccc1C(F)(F)F)NC1CCCCC1,24.3
3,CC(C)NC1=N/C(=C\c2ccccc2)C(=O)N1c1cccc(Cl)c1,0.231
4,CC(C)CCCNC=C1C(=O)NC(=O)NC1=O,12.8
5,CC(O)CN(CC(C)O)CC1CCCCC1 (stereo not drawn),1.88
6,O=S(=O)(Nc1nc2c(s1)CCCC2)c1cc(Cl)ccc1Cl,-3.49
7,O=C(Cn1cc(SCc2ccccc2Cl)c2ccccc21)N1CCCC1,0.0147
8,Cc1ccccc1C(=O)N(Cc1ccccc1F)C1CCS(=O)(=O)C1 (stereo not drawn),-1.35
9,N#Cc1c(N)n(-c2ccccc2O)c2nc3cc([N+](=O)[O-])c([N+](=O)[O-])cc3nc12,-0.0372
10,O=C1C2CCCN2C(c2cccc(Br)c2)N1c1nccs1 (stereo not drawn),-4.14
11,Cc1cc(C)c2c(-n3cccc3)c(C(=O)NCCCN3CCOCC3)sc2n1,-2.85
12,O=C(c1ccc(C(F)(F)F)cc1)N1CCN(c2ccccc2)CC1,-6.65
13,C#CCCCNc1nc(Cl)cn(-c2ccccc2)c1=O,3.05
14,CCn1c(-c2ccccc2)nc2ncccc2c1=O,-0.553
15,CN(C(=O)Cc1ccccc1)N(C)C(=O)Cc1ccccc1,2.38
16,COc1cc2ncn(C)c2cc1OC,-2.36
17,COc1ccc(CC(=O)Nc2ccccc2C(=O)NC2CCCCC2)cc1,-5.34
18,CCOc1ccc(C(=O)Nc2cccc(Cl)c2)cc1Cl,-1.63
19,Cc1ccc(C2C(C(=O)O)c3ccccc3C(=O)N2C)o1 (stereo not drawn),1.08
20,COc1cc(-c2nnc(SCC(=O)N3CCCC3)o2)cc(OC)c1OC,28
21,Fc1ccc(Nc2nc(-c3ccc(Br)cc3)cs2)cc1,-0.771
22,Cc1cc(-c2ccc(C)o2)c(C#N)c(SCC(=O)c2ccccc2)n1,-6.11
23,Cc1ccc(-c2c(N3CCCCC3C)c(=O)c2=O)cc1C (stereo not drawn),-2.87
24,CCOC(=O)N1CCC(N2C(=O)c3cc(C(=O)NC4CCCCC4)ccc3C2O)CC1 (stereo not drawn),0.809
25,CCOC(=O)N1CCC(NC(=O)CCc2nc(C3=CCN(C)CC3)no2)CC1,0.655
26,CCCCN(C)C(=O)Cn1cc(S(=O)(=O)NC)c(S(=O)(=O)NC)c1,0.186

row,Structure (SMILES),% Inhibition @ 10 uM [%]
1,CC(=O)c1ccc(N2CCN(C3CCN(C)CC3)CC2)cc1,3.18
2,O=C(c1ccccc1)N1CCCC2CCC(O)CC21 (stereo not drawn),-1.91
3,COc1cc(C(=O)NCCCc2nc3ccccc3n2Cc2ccccc2F)cc(OC)c1OC,5.4
4,COC(=O)C1=CN(CC2CCCO2)C=C(C(=O)OC)C1c1ccccc1C(F)(F)F (stereo not drawn),-1.47
5,Cc1ccc2c(c1)-c1onc(C(=O)NC(C)CCc3ccco3)c1CO2 (stereo not drawn),-1.4
6,Nc1c(Cl)c(Cl)c(N)c2nccnc12,-1.29
7,N#Cc1ccccc1Cn1c(=O)n(Cc2ccccn2)c(=O)c2sc3ccccc3c21,2.04
8,COc1ccc2ccccc2c1/C=C1\C=C(c2ccc(C)cc2)OC1=O,3.72
9,COC(=O)c1sccc1S(=O)(=O)N1CCN(c2ncccn2)CC1,-4.94
10,CN(C)C1=C2CCN(Cc3ccccc3)C2C(C#N)C(=O)N1 (stereo not drawn),3.47
11,CCc1ccc(N2C(=O)C(Cl)=C(Nc3ccc(OC)cc3)C2=O)cc1,-2.88
12,O=C(NC1CCCCCCC1)C(NS(=O)(=O)c1cccc2nsnc12)c1ccccc1 (stereo not drawn),2
13,CO/C(O)=C1/C(C)=NC2=C(C(=O)CCC2)C1c1ccc(SC)cc1 (stereo not drawn),-2.48
14,COC(=O)c1ccc(/C=C2/C=C(c3ccc(OC)cc3)OC2=O)cc1,-5.62
15,COc1cccc(CN2CC(C)OC(C)C2)c1 (stereo not drawn),5.03
16,CCOC(=O)N1CCN(c2nc(-c3ccccc3F)nc3ccccc23)CC1,3.45
17,Cc1ccc(C(=O)Nc2nnc(S(=O)(=O)N3CCC(C)CC3)s2)cc1,1.68
18,CCN(C(=O)c1ccccc1Br)c1nc(-c2ccccc2)cs1,-6.6
19,CCSc1c(C(=O)NCc2ccccc2)ccc2c1C(=O)c1ccccc1C2=O,-3.04
20,COc1cc(C2c3c(-c4cc(C)ccc4O)n[nH]c3C(=O)N2CCO)cc(OC)c1OC (stereo not drawn),5.35
21,COc1ccc(C2CC(=O)c3cnc(NC(=O)c4ccccc4)nc3C2)cc1 (stereo not drawn),11.6
22,COC1=C(Cc2ccccc2)C(=O)OC2C=CC=CC12 (stereo not drawn),-0.711
23,Cc1ccccc1C(=O)N(Cc1ccc(Cl)cc1)Cc1ccco1,-0.666
24,O=S1(=O)C(/C=N/C2CCCCCC2)=C(O)c2sccc2N1Cc1ccccc1,-2.16
25,CCc1nnc(NC(=O)CCNS(=O)(=O)c2cc(Br)cnc2N)s1,-4.69
